Measurements reported in PubChem BioAssay AID1963576 (National Center for Advancing Translational Sciences (NCATS), 2024).
About 60 (0.1%) of roughly 46,000 compounds were called active. Roughly 3% stayed inconclusive and do not appear here. The call rests on the fitted dose curve; in most records, active means well fitted inhibition curve with a large enough effect; inconclusive means small, poorly fitted or top-dose-only effect; inactive means no such curve, though single readings can be large or run the other way. Some of the results follow.

Assay: Primary qHTS assay for Inhibitors of ovarian cancer metastasis using an organotypic tumor microenvironment (TME) model. Further: nearly all actives have a fitted effect of over 65% in size.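 On activity change, negative = inhibition: plate controls were DMSO wells for no effect and tomatine positive control wells for full effect.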
Details: SKOV3ip1-GFP adhesion/invasion on 3D omental model, fluorescence; series mostly up to 45.8 µM; activity change, negative = inhibition: at the top concentration
How it was run: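 Primary human omental fibroblast/mesothelial 3D culture pre-formed 48 h. SKOV3ip1-GFP cells added with compounds (0.36-46 umol/L), incubated 2 h RT/16 h 37 C, fixed; GFP cells quantified at 488/509 nm.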

Activity change, negative = inhibition, inactive:
CCN(Cc1ccccc1)C(=O)Cn1c(=O)n(-c2ccc(C)c(C)c2)c(=O)c2c(C)c(C)sc21 -1.35%
O=c1oc2ccccc2cc1-c1cn2cc(Cc3ccc(Cl)cc3)sc2n1 -11.6%
O=c1cc(-c2ccccc2)n2c(SCc3ccc(F)cc3)nnc2[nH]1 -27.5%
C[C@H](c1ccc(F)cc1CCCC(=O)O)N(c1cc(F)ccc1F)S(=O)(=O)c1ccc(Cl)cc1 -1.95%
Cc1ccc(C)c(OC(=O)CSc2nnc(CNC(=O)c3ccccc3)o2)c1 -5.48%
Cc1ccc(NC(=O)CSc2nc(-c3ccco3)cc(C(F)(F)F)n2)cc1 -3.53%
Cc1ccc(NC(=O)CN2C(=O)CCSc3ccc(S(=O)(=O)N4CCCC4)cc32)cc1C -1.48%
CCc1nc(Oc2cccc(F)c2)c2oc3ccccc3c2n1 -2.21%
COc1cc(C)cc2oc(=O)c(CC(=O)NCc3cccc(Cl)c3)c(C)c12 -26%
COC(=O)c1ccc(C2C(C(=O)Nc3ccccc3)=C(C)Nc3nc4ccccc4n32)cc1 (stereo unspecified) -12.4%
CCOc1ccc(-n2nc3ccc(NC(=O)COc4ccc(OC)cc4)cc3n2)cc1 -3.76%
CC(C)c1ccc(OC(=O)c2cc(-c3ccccc3)on2)cc1 6.13%
CCN(CC)c1ccc(NC(=O)CSc2nc(-c3cccs3)cc(C(F)(F)F)n2)cc1 -9.19%
Cc1cc2oc(C(=O)Nc3ccc(S(=O)(=O)N4CCCCCC4)cc3)cc(=O)c2cc1C -0.238%
Cc1ccc(C)c(Cn2c(C3CC(=O)N(c4ccccc4C)C3)nc3ccccc32)c1 (stereo unspecified) -1.55%
CC1=C(C(=O)Nc2ccccc2)C(c2cccn2C)n2ncnc2N1 (stereo unspecified) 9.92%
O=S(=O)(c1ccc2nc(N3CCN(c4cccc(Cl)c4)CC3)ccc2c1)N1CCCCC1 4.2%

outcome, inactive:
CCOC(=O)c1c(C)[nH]c(CCC(=O)NCc2ccc(N(C)C)cc2)c1C
Cc1cn2c(=O)cc(COC(=O)COc3ccccc3C)nc2s1
CCCSc1ncc(Cl)c(C(=O)Nc2c(C(=O)Nc3ccc(C)cc3)oc3ccccc23)n1
CC(=O)N1CCc2c(sc3nc(SCC(C)C)n(-c4ccc(F)c(Cl)c4)c(=O)c23)C1
Cc1ccc(NC(=O)Nc2nnc(N(C)Cc3ccccc3)s2)c(C)c1
CCN(CC)c1ccc(NS(=O)(=O)c2cc3[nH]c(=O)c(=O)[nH]c3cc2C)c(C)c1
COc1ccc(Cn2c(=O)c3oc4ccccc4c3n(CC(=O)Nc3ccc(F)cc3F)c2=O)cc1
Cc1ccc(Nc2nc(C)nc(N)c2S(=O)(=O)c2ccccc2)cc1
CCN(CC)c1ccc(-c2nc(-c3ccccc3C)no2)cc1[N+](=O)[O-]
